The structures appear in SMILES notation. Screen size: about 310,000 compounds; about 14,000 (4.5%) showed an effect of 50% or more. The effect is printed as a negative number. Some of the results follow.
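Further: peak tail current of the secondary pulse compared with the same well before compound.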

human ether-à-go-go-related gene (hERG) potassium channel, sequence (Q12809 whole entry, looked up): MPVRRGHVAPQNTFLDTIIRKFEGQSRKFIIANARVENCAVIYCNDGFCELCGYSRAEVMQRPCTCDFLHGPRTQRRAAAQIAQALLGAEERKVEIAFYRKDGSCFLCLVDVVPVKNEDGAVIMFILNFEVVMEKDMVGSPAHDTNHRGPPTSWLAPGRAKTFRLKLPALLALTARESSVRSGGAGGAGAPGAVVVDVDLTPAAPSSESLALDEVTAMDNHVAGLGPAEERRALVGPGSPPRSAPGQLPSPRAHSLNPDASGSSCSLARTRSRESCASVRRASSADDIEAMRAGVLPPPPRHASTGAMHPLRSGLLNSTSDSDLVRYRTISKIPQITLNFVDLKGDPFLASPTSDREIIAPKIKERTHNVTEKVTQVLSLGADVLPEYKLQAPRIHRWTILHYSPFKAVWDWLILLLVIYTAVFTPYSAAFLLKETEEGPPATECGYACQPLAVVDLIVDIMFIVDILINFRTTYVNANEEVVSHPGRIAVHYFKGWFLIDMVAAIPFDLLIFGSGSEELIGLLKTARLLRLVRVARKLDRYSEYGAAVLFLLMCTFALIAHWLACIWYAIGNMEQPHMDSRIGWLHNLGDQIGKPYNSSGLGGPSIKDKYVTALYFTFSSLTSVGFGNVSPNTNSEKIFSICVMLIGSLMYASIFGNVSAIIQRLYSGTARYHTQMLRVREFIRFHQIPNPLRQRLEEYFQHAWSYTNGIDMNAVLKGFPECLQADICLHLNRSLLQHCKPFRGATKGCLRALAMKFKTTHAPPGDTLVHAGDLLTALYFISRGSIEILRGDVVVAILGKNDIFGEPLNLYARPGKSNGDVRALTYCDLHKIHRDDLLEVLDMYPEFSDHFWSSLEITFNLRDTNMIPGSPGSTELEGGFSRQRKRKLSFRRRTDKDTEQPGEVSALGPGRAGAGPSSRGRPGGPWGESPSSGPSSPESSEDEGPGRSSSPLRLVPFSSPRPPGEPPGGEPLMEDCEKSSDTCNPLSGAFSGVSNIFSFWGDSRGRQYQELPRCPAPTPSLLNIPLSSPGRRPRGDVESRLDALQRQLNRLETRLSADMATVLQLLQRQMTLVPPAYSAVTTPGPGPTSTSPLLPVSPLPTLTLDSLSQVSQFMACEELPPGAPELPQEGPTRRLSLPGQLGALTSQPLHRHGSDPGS

This experiment has as its target human ether-à-go-go-related gene (hERG) potassium channel (human, UniProt Q12809). Description: primary screen, population patch clamp on CHO cells stably expressing hERG.
For the compound `Cc1ccc(S(=O)(=O)NC2CCCCC2)cc1`, the “hERG current change (%, negative = inhibition) at 10uM” value is listed as 10.7%.

Turning to `Cc1ccc(CN(C(=O)c2c(F)cccc2F)C2CC(C)(C)NC(C)(C)C2)o1.Cl`, the “hERG current change (%, negative = inhibition) at 10uM” value is -25.1%.

Take `COc1cccc(/C=N/NC(=O)CSc2ccccc2C)c1O`: the “hERG current change (%, negative = inhibition) at 10uM” value was -16.8%.

On to `CCCn1c(NC(=O)c2ccc(Br)cc2)nc2ccccc21`, for which the “hERG current change (%, negative = inhibition) at 10uM” value is reported as -1.86%.

For `CN(C)CC1CSCCC1(O)c1ccccc1Cl.Cl` (centres unmarked), the “hERG current change (%, negative = inhibition) at 10uM” value worked out at 2.83%.

For the compound `CCN(CC)S(=O)(=O)c1ccc2c(c1)c(=O)c(C(=O)N1CCOCC1)cn2C`, the “hERG current change (%, negative = inhibition) at 10uM” value is recorded as 4.64%.

Regarding `Cc1ccc(S(=O)(=O)/N=C(/NC(=S)Nc2cccc(C)c2)c2ccccc2)cc1`, the “hERG current change (%, negative = inhibition) at 10uM” value stood at 6.31%.

Consider `COc1cc(CC(=O)OCC(=O)Nc2ccc(N3CCOCC3)cc2)cc(OC)c1OC`, for which the “hERG current change (%, negative = inhibition) at 10uM” value is -2.66%.

Consider `CCCOCCOC(=O)c1[nH]c2c(c1C)C(=O)CC(c1cc(OC)ccc1OC)C2` (centres unmarked), for which the “hERG current change (%, negative = inhibition) at 10uM” value was 5.2%.

With `CCN(CC)C(=O)Cn1cc(S(=O)(=O)CC(=O)Nc2ccc3c(c2)OCCO3)c2ccccc21`, the “hERG current change (%, negative = inhibition) at 10uM” value is -9.47%.

In the case of `CC1CC2=C(C(=O)O1)C(C)Nc1ccccc1N2` (centres unmarked), the “hERG current change (%, negative = inhibition) at 10uM” value is 0.756%.

Take `COc1cc(/C=C/C(=O)OCC(=O)N2CCCC2)ccc1OCC#N`: the “hERG current change (%, negative = inhibition) at 10uM” value is listed as -6.14%.

Take `CCS(=O)(=O)N1CCC(C(=O)NCCCN2CCCC2)CC1`: the “hERG current change (%, negative = inhibition) at 10uM” value was determined as 24.9%.

On to `COCCn1c(SCCCC(=O)c2ccc(Br)cc2)nnc1-c1ccncc1`, for which the “hERG current change (%, negative = inhibition) at 10uM” value is listed as -60.7%.

`Cc1nc2nc(-c3ccccc3)[nH]n2c(=O)c1C`: the “hERG current change (%, negative = inhibition) at 10uM” value is reported as -3.77%.

On to `O=C(Nc1cccc(S(=O)(=O)N2CCCC2)c1)C1CCCN1C(=O)c1cccs1` (centres unmarked), for which the “hERG current change (%, negative = inhibition) at 10uM” value is recorded as -7.77%.

Take `CC(=O)c1c(O)cc(C)n(Cc2ccccc2)c1=O`: the “hERG current change (%, negative = inhibition) at 10uM” value is given as -5.14%.

`O=C(CSc1ncnc2c1nnn2-c1ccc(F)cc1)NCc1ccco1`: the “hERG current change (%, negative = inhibition) at 10uM” value was -3.27%.

For the compound `O=C1NCN(CCO)CN1`, the “hERG current change (%, negative = inhibition) at 10uM” value stood at 8.23%.

As to `Oc1ccc(/C=N/N2CCN(c3ccccn3)CC2)cc1`, the “hERG current change (%, negative = inhibition) at 10uM” value was determined as 5.86%.

Regarding `COC(=O)C1=C(c2ccc(C(C)=O)cc2)C[C@@H]2CC[C@H]1N2C(=O)NCCO`, the “hERG current change (%, negative = inhibition) at 10uM” value is -2.53%.

Take `CC(=NCc1ccco1)c1c(O)n(-c2ccccc2C)c(=O)[nH]c1=O`: the “hERG current change (%, negative = inhibition) at 10uM” value was 20.9%.

Consider `COc1cc(S(=O)(=O)Nc2ccccc2C)ccc1NC(=O)c1ccncc1`, for which the “hERG current change (%, negative = inhibition) at 10uM” value is reported as -2.55%.

As for `CCOCCCNC(=O)c1ccc2c(c1)ncn2-c1cccc(C)c1`, the “hERG current change (%, negative = inhibition) at 10uM” value is recorded as -33.2%.

Take `Nc1ccccc1C(=O)Nc1cccc(C(=O)O)c1`: the “hERG current change (%, negative = inhibition) at 10uM” value is listed as 8.6%.

On to `Cc1cc(/C=C2/C(=O)NC(=O)N(c3ccc(Br)cc3)C2=O)c(C)n1C`, for which the “hERG current change (%, negative = inhibition) at 10uM” value was determined as 9.31%.

With `Cn1c(SCC(=O)NCC2CCCO2)nnc1-c1cccc(NC(=O)c2ccccc2F)c1` (centres unmarked), the “hERG current change (%, negative = inhibition) at 10uM” value was determined as 4.14%.

Take `CC(C)(C)c1[nH]nc2c1C(c1cccnc1)C(C#N)=C(N)O2` (centres unmarked): the “hERG current change (%, negative = inhibition) at 10uM” value amounted to 3.46%.

Consider `Cc1ccc(C(=O)NNC(=O)c2ccc(NS(=O)(=O)c3cccs3)cc2)o1`, for which the “hERG current change (%, negative = inhibition) at 10uM” value is listed as -16.5%.

Take `CC1CN(Cc2ccccc2)C(C)CC1O` (centres unmarked): the “hERG current change (%, negative = inhibition) at 10uM” value is recorded as -29.1%.

Consider `COC(=O)CN1C(C)=Nc2ccc(C)cc2C1c1ccccc1` (centres unmarked), for which the “hERG current change (%, negative = inhibition) at 10uM” value is reported as -43.1%.

For `Cc1cc(NC(=O)CSc2c(C)[nH]c3ccccc23)no1`, the “hERG current change (%, negative = inhibition) at 10uM” value came to 7.46%.

Take `CCCc1ncc(C(O)c2cccc(OC)c2OC)n1C` (centres unmarked): the “hERG current change (%, negative = inhibition) at 10uM” value stood at 12.7%.

For `O=C1/C(=C/c2cccs2)SC(=S)N1c1ccccc1`, the “hERG current change (%, negative = inhibition) at 10uM” value is 10.5%.

On to `CC(=O)c1cccc(NC(=O)c2ccccc2N(C)S(=O)(=O)c2ccc(C)cc2)c1`, for which the “hERG current change (%, negative = inhibition) at 10uM” value is -46.7%.

Regarding `CCN(CC)S(=O)(=O)c1ccc(Cl)c(NC(=O)CSc2nnc(-c3cccs3)o2)c1`, the “hERG current change (%, negative = inhibition) at 10uM” value is -23.1%.

On to `O=C(CCn1c(=S)oc2ccccc21)Nc1ccc2c(c1)OCCO2`, for which the “hERG current change (%, negative = inhibition) at 10uM” value was determined as 0.605%.

`CC(C)c1ccc2[nH]c(O)c(N=NC(=O)c3cccc(S(=O)(=O)Nc4ccccc4Cl)c3)c2c1`: the “hERG current change (%, negative = inhibition) at 10uM” value was 6.86%.

For `O=C(c1nc2ccc(Cl)cn2c1CN1CCC[C@H]1CO)N1CCCCCCC1`, the “hERG current change (%, negative = inhibition) at 10uM” value is listed as -1.18%.

As for `CC(=O)N(Cc1ccccc1)c1ncc2c(n1)c(=O)c(C#N)c1ccccn12`, the “hERG current change (%, negative = inhibition) at 10uM” value is recorded as 10.4%.

In the case of `CCNC(=S)N/N=C/c1c(Cl)cccc1Cl`, the “hERG current change (%, negative = inhibition) at 10uM” value came to 18.1%.

Turning to `CCn1cc([N+](=O)[O-])c(C(=O)Nc2nc(-c3ccc(C)cc3)c(C)s2)n1`, the “hERG current change (%, negative = inhibition) at 10uM” value was -9.72%.

As for `CCN(CC(=O)Nc1ccc(NC(C)=O)cc1)C(=O)/C=C/c1cn(-c2ccccc2)nc1-c1ccc(C)cc1`, the “hERG current change (%, negative = inhibition) at 10uM” value turned out to be 10.9%.

As to `COc1ccc(C/C(C)=N/NC(=S)Nc2ccc(Cl)cc2)cc1`, the “hERG current change (%, negative = inhibition) at 10uM” value is recorded as 24.5%.

For the origin of these results see PMC4336329 (PLoS ONE, 2015).
